Some of the results follow. The list includes weakly bound sequences.
molecular target: T1, MBP-FoxP3dN (UniProt Q99JB6); assay: PD-seq (MBP pull-down with sequencing); conditions: 20 mM Tris-HCl pH 7.5, 100 mM NaCl, 1.5 mM MgCl2, 0.4 uM protein, 0.1 uM dsDNA library, 30 min, room temperature, amylose pull-down; high values mean tight binding; double strand, one strand shown
T1 sequence: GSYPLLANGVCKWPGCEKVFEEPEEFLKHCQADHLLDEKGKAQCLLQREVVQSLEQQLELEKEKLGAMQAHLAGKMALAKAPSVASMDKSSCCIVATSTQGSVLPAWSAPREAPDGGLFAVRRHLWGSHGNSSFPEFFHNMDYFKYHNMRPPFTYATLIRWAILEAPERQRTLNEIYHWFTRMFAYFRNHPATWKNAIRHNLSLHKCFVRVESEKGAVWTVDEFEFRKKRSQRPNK

| Sequence | binding signal (RPM ratio (pull-down/input)) |
| --- | --- |
| GATGATTGTTCTCCCAGCTGATGAATTACACCTCTCGAGTAAACAAATTTTCCTAATCTTTCTGTTCAAGCGCCATCTAC | 0.705 |
| GATGATTGTTCTCCCAGCTGATGAATTCCGGCTATCGAGTAAACAAATTTTCCTAATCTTTCTGTTCAAGCGCCATCTAC | 0.522 |
| GATGATTGTTCTCCCAGCTGATGAATTAAACTAATCGAGTAAACAAATTTTCCTAATCTTTCTGTTCAAGCGCCATCTAC | 0.336 |
| GATGATTGTTCTCCCAGCTGATGAATTACTCCAATCGAGTAAACAAATTTTCCTAATCTTTCTGTTCAAGCGCCATCTAC | 0.305 |
| GATGATTGTTCTCCCAGCTGATGAATTAGAAGACTCGAGTAAACAAATTTTCCTAATCTTTCTGTTCAAGCGCCATCTAC | 0.289 |
| GATGATTGTTCTCCCAGCTGATGAATTCATGCCATCGAGTAAACAAATTTTCCTAATCTTTCTGTTCAAGCGCCATCTAC | 1.88 |
| GATGATTGTTCTCCCAGCTGATGAATTTAACCGGTCGAGTAAACAAATTTTCCTAATCTTTCTGTTCAAGCGCCATCTAC | 0.193 |
| GATGATTGTTCTCCCAGCTGATGAATTACGTAGATCGAGTAAACAAATTTTCCTAATCTTTCTGTTCAAGCGCCATCTAC | 0.417 |
| GATGATTGTTCTCCCAGCTGATGAATTGCCCCATTCGAGTAAACAAATTTTCCTAATCTTTCTGTTCAAGCGCCATCTAC | 0.487 |
| GATGATTGTTCTCCCAGCTGATGAATTGGGCTAGTCGAGTAAACAAATTTTCCTAATCTTTCTGTTCAAGCGCCATCTAC | 0.755 |
| GATGATTGTTCTCCCAGCTGATGAATTGGGAGGGTCGAGTAAACAAATTTTCCTAATCTTTCTGTTCAAGCGCCATCTAC | 0.3 |
| GATGATTGTTCTCCCAGCTGATGAATTATCTCGATCGAGTAAACAAATTTTCCTAATCTTTCTGTTCAAGCGCCATCTAC | 0.258 |
| GATGATTGTTCTCCCAGCTGATGAATTTGGGGCATCGAGTAAACAAATTTTCCTAATCTTTCTGTTCAAGCGCCATCTAC | 0.914 |
| GATGATTGTTCTCCCAGCTGATGAATTATTTTATTCGAGTAAACAAATTTTCCTAATCTTTCTGTTCAAGCGCCATCTAC | 0.489 |
| GATGATTGTTCTCCCAGCTGATGAATTTCGTACATCGAGTAAACAAATTTTCCTAATCTTTCTGTTCAAGCGCCATCTAC | 0.613 |
| GATGATTGTTCTCCCAGCTGATGAATTCCGACAATCGAGTAAACAAATTTTCCTAATCTTTCTGTTCAAGCGCCATCTAC | 0.345 |
| GATGATTGTTCTCCCAGCTGATGAATTGCCGGCGTCGAGTAAACAAATTTTCCTAATCTTTCTGTTCAAGCGCCATCTAC | 0.602 |
| GATGATTGTTCTCCCAGCTGATGAATTCGGTTAATCGAGTAAACAAATTTTCCTAATCTTTCTGTTCAAGCGCCATCTAC | 0.418 |
| GATGATTGTTCTCCCAGCTGATGAATTCCCAGTGTCGAGTAAACAAATTTTCCTAATCTTTCTGTTCAAGCGCCATCTAC | 0.318 |
| GATGATTGTTCTCCCAGCTGATGAATTGTAATCCTCGAGTAAACAAATTTTCCTAATCTTTCTGTTCAAGCGCCATCTAC | 0.859 |
| GATGATTGTTCTCCCAGCTGATGAATTGATATGATCGAGTAAACAAATTTTCCTAATCTTTCTGTTCAAGCGCCATCTAC | 0.644 |

| Sequence | binding signal (RPM ratio (pull-down/input)) |
| --- | --- |
| GATGATTGTTCTCCCAGCTGATGAATTATCAGGCTCGAGTAAACAAATTTTCCTAATCTTTCTGTTCAAGCGCCATCTAC | 0.299 |
| GATGATTGTTCTCCCAGCTGATGAATTTCAGCGATCGAGTAAACAAATTTTCCTAATCTTTCTGTTCAAGCGCCATCTAC | 0.456 |
| GATGATTGTTCTCCCAGCTGATGAATTCGATTTGTCGAGTAAACAAATTTTCCTAATCTTTCTGTTCAAGCGCCATCTAC | 2.96 |
| GATGATTGTTCTCCCAGCTGATGAATTCTCAGGATCGAGTAAACAAATTTTCCTAATCTTTCTGTTCAAGCGCCATCTAC | 0.153 |
| GATGATTGTTCTCCCAGCTGATGAATTTGGTGAGTCGAGTAAACAAATTTTCCTAATCTTTCTGTTCAAGCGCCATCTAC | 0.814 |
| GATGATTGTTCTCCCAGCTGATGAATTGAAGTAGTCGAGTAAACAAATTTTCCTAATCTTTCTGTTCAAGCGCCATCTAC | 0.291 |
| GATGATTGTTCTCCCAGCTGATGAATTGAAGACGTCGAGTAAACAAATTTTCCTAATCTTTCTGTTCAAGCGCCATCTAC | 0.255 |
| GATGATTGTTCTCCCAGCTGATGAATTGCGGGTTTCGAGTAAACAAATTTTCCTAATCTTTCTGTTCAAGCGCCATCTAC | 1.16 |
| GATGATTGTTCTCCCAGCTGATGAATTAGTGGTCTCGAGTAAACAAATTTTCCTAATCTTTCTGTTCAAGCGCCATCTAC | 2.22 |
| GATGATTGTTCTCCCAGCTGATGAATTCCTAAATTCGAGTAAACAAATTTTCCTAATCTTTCTGTTCAAGCGCCATCTAC | 0.286 |
| GATGATTGTTCTCCCAGCTGATGAATTAAACTCTTCGAGTAAACAAATTTTCCTAATCTTTCTGTTCAAGCGCCATCTAC | 0.285 |
| GATGATTGTTCTCCCAGCTGATGAATTCAGCCTATCGAGTAAACAAATTTTCCTAATCTTTCTGTTCAAGCGCCATCTAC | 1.64 |
| GATGATTGTTCTCCCAGCTGATGAATTCGTCAGGTCGAGTAAACAAATTTTCCTAATCTTTCTGTTCAAGCGCCATCTAC | 0.551 |
| GATGATTGTTCTCCCAGCTGATGAATTTTGCCGATCGAGTAAACAAATTTTCCTAATCTTTCTGTTCAAGCGCCATCTAC | 0.82 |
| GATGATTGTTCTCCCAGCTGATGAATTTGATAGATCGAGTAAACAAATTTTCCTAATCTTTCTGTTCAAGCGCCATCTAC | 0.347 |
| GATGATTGTTCTCCCAGCTGATGAATTCGCATTATCGAGTAAACAAATTTTCCTAATCTTTCTGTTCAAGCGCCATCTAC | 3.53 |
| GATGATTGTTCTCCCAGCTGATGAATTTGGAGCGTCGAGTAAACAAATTTTCCTAATCTTTCTGTTCAAGCGCCATCTAC | 0.534 |
| GATGATTGTTCTCCCAGCTGATGAATTTACAACCTCGAGTAAACAAATTTTCCTAATCTTTCTGTTCAAGCGCCATCTAC | 0.538 |
| GATGATTGTTCTCCCAGCTGATGAATTAGAAGCCTCGAGTAAACAAATTTTCCTAATCTTTCTGTTCAAGCGCCATCTAC | 0.397 |
| GATGATTGTTCTCCCAGCTGATGAATTCCCACGGTCGAGTAAACAAATTTTCCTAATCTTTCTGTTCAAGCGCCATCTAC | 0.204 |
| GATGATTGTTCTCCCAGCTGATGAATTGTCAGGGTCGAGTAAACAAATTTTCCTAATCTTTCTGTTCAAGCGCCATCTAC | 0.252 |

| Sequence | binding signal (RPM ratio (pull-down/input)) |
| --- | --- |
| GATGATTGTTCTCCCAGCTGATGAATTGGCATGATCGAGTAAACAAATTTTCCTAATCTTTCTGTTCAAGCGCCATCTAC | 0.668 |
| GATGATTGTTCTCCCAGCTGATGAATTAAACATCTCGAGTAAACAAATTTTCCTAATCTTTCTGTTCAAGCGCCATCTAC | 0.782 |
| GATGATTGTTCTCCCAGCTGATGAATTCTGTGAGTCGAGTAAACAAATTTTCCTAATCTTTCTGTTCAAGCGCCATCTAC | 2.1 |
| GATGATTGTTCTCCCAGCTGATGAATTTACTAATTCGAGTAAACAAATTTTCCTAATCTTTCTGTTCAAGCGCCATCTAC | 0.598 |
| GATGATTGTTCTCCCAGCTGATGAATTGTCCCGCTCGAGTAAACAAATTTTCCTAATCTTTCTGTTCAAGCGCCATCTAC | 0.272 |
| GATGATTGTTCTCCCAGCTGATGAATTCACGCCGTCGAGTAAACAAATTTTCCTAATCTTTCTGTTCAAGCGCCATCTAC | 0.726 |
| GATGATTGTTCTCCCAGCTGATGAATTATTGCCATCGAGTAAACAAATTTTCCTAATCTTTCTGTTCAAGCGCCATCTAC | 2.93 |
| GATGATTGTTCTCCCAGCTGATGAATTTTAAATATCGAGTAAACAAATTTTCCTAATCTTTCTGTTCAAGCGCCATCTAC | 0.403 |
| GATGATTGTTCTCCCAGCTGATGAATTTCTCACCTCGAGTAAACAAATTTTCCTAATCTTTCTGTTCAAGCGCCATCTAC | 0.261 |
| GATGATTGTTCTCCCAGCTGATGAATTTACTACCTCGAGTAAACAAATTTTCCTAATCTTTCTGTTCAAGCGCCATCTAC | 0.599 |
| GATGATTGTTCTCCCAGCTGATGAATTACCAAACTCGAGTAAACAAATTTTCCTAATCTTTCTGTTCAAGCGCCATCTAC | 0.349 |
| GATGATTGTTCTCCCAGCTGATGAATTGAAGGCTTCGAGTAAACAAATTTTCCTAATCTTTCTGTTCAAGCGCCATCTAC | 0.432 |
| GATGATTGTTCTCCCAGCTGATGAATTTCAGTGGTCGAGTAAACAAATTTTCCTAATCTTTCTGTTCAAGCGCCATCTAC | 0.44 |
| GATGATTGTTCTCCCAGCTGATGAATTCTGAAGGTCGAGTAAACAAATTTTCCTAATCTTTCTGTTCAAGCGCCATCTAC | 0.201 |
| GATGATTGTTCTCCCAGCTGATGAATTAGCCCGATCGAGTAAACAAATTTTCCTAATCTTTCTGTTCAAGCGCCATCTAC | 0.188 |
| GATGATTGTTCTCCCAGCTGATGAATTCAAGGATTCGAGTAAACAAATTTTCCTAATCTTTCTGTTCAAGCGCCATCTAC | 0.248 |
| GATGATTGTTCTCCCAGCTGATGAATTACATGCATCGAGTAAACAAATTTTCCTAATCTTTCTGTTCAAGCGCCATCTAC | 1.56 |
| GATGATTGTTCTCCCAGCTGATGAATTGTTTAACTCGAGTAAACAAATTTTCCTAATCTTTCTGTTCAAGCGCCATCTAC | 0.898 |
| GATGATTGTTCTCCCAGCTGATGAATTAGCAGCGTCGAGTAAACAAATTTTCCTAATCTTTCTGTTCAAGCGCCATCTAC | 0.645 |
| GATGATTGTTCTCCCAGCTGATGAATTAGGGCCTTCGAGTAAACAAATTTTCCTAATCTTTCTGTTCAAGCGCCATCTAC | 1.51 |
| GATGATTGTTCTCCCAGCTGATGAATTACTCACCTCGAGTAAACAAATTTTCCTAATCTTTCTGTTCAAGCGCCATCTAC | 0.349 |
